Source: paper PMC6919601, “Identification of Plasmodium dipeptidyl aminopeptidase allosteric inhibitors by high throughput screening” (PLoS ONE, 2019)
Out of some 110,000 compounds screened, about 230 (0.21%) showed an effect of 50% or more. The list shows a part of the results.

target: DPAP1 (Plasmodium falciparum, UniProt Q8IIJ9); test: primary screen, percent inhibition; read by cleavage of a fluorogenic dipeptide substrate; higher = more effect of the substance; design: species or system P. falciparum D10 trophozoite lysates; single well
Sequence (Q8IIJ9 whole entry, looked up): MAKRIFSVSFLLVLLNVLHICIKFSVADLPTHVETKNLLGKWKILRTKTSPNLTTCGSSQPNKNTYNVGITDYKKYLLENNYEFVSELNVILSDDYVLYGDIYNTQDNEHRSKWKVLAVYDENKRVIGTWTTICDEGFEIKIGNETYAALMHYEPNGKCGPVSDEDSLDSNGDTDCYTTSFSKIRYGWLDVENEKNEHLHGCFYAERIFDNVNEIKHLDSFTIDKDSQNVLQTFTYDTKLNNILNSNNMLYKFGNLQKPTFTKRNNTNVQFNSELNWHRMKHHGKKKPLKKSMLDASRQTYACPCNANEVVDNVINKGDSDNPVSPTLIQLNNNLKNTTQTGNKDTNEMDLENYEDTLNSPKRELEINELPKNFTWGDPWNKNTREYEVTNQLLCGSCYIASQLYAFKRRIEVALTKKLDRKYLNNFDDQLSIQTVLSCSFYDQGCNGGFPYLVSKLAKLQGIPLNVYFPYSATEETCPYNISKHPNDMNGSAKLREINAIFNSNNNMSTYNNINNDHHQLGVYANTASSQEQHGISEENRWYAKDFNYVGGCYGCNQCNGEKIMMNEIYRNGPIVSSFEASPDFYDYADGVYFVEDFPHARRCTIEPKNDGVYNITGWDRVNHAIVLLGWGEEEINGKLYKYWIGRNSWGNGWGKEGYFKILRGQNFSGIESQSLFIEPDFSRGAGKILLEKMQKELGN
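Also: 30 min substrate incubation versus DMSO and 10 µM JCP410 controls.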

Row | Structure (SMILES) | % Inhibition @ 10 uM
1 | C=CCn1c(=O)c(C(=O)NCc2ccccn2)c(O)c2ccccc21 | -0.864%
2 | CC(=O)C(C)(O)c1cccnc1 (stereo not shown) | -2.79%
3 | O=C(Nc1c2c(nn1-c1ccc(F)cc1)CS(=O)(=O)C2)c1cc(Br)ccc1Cl | 9.09%
4 | COC(=O)C1=C(C)N(CC2CCCO2)C(=O)/C1=C\c1ccccc1OC (stereo not shown) | -3.4%
5 | Cc1nc2ccsc2c(=O)n1-c1ccc(Cl)cc1 | 1.01%
6 | Cc1cc(C)c(S(=O)(=O)N2CCC(C(=O)Nc3c(F)cccc3F)CC2)c(C)c1 | -2.28%
7 | O=C(NC1CCCCC1)c1ccc(Cl)c(S(=O)(=O)N2CCCCC2)c1 | 5.56%
8 | O=C(CN(c1ccccc1)S(=O)(=O)c1ccccc1)N1CCN(c2ccccc2)CC1 | -5.95%
9 | O=C1CC(NCc2ccccn2)C(=O)N1c1ccc(F)cc1 (stereo not shown) | -1.61%
10 | CN1C(=O)C(CC(=O)Nc2ccccc2F)S/C1=N/c1ccccc1 (stereo not shown) | 2.13%
11 | Cc1nc2c3ccccc3nc(N3CCN(C(c4ccccc4)c4ccccc4)CC3)n2n1 | 0.775%
12 | COc1ccc(OC)c(NS(=O)(=O)c2c(C)cc(C)cc2C)c1 | -3.15%
13 | COC(=O)Nc1nc(O)c2cc([N+](=O)[O-])ccc2n1 | -1.91%
14 | N#C/C(=C\c1c(Oc2ccccc2Cl)nc2ccccn2c1=O)C(=O)NC1CCCC1 | 4.06%
15 | COc1ccc(C(=O)Nc2cc(Cl)ccn2)cc1 | -5.6%
16 | CCOC(=O)C1(C#N)C2(CCCCC2)C1(C#N)C(=O)OCC (stereo not shown) | 3.16%
17 | CCN1CCN(C(=O)C2CC(c3ccc(Cl)cc3)=NO2)CC1 (stereo not shown) | 5.12%
18 | Cc1ccc(Sc2ccc(C=C3C(=O)N(C)C(=O)N(C)C3=O)o2)cc1 | -2.26%
19 | CC(C)(C)C(=O)CC(O)(c1ccccc1)C(F)(F)F (stereo not shown) | 4.82%
20 | CC1=NN(c2ccc(Cl)cc2)C(=O)C1 | -3.79%
21 | COc1cc(C)c(CNc2cccc(SC)c2)cc1C | 2.91%
22 | CN1CCN(c2cc(N3CCN(CCO)CC3)ccc2[N+](=O)[O-])CC1 | -0.0648%
23 | CCCC1Oc2ccccc2C2CC(c3ccc(Cl)cc3)=NN12 (stereo not shown) | 12.2%
24 | COc1ccc2nc(N3CCC(C(=O)N4CCC5(CC4)OCCO5)CC3)sc2c1 | -5.51%
25 | CCCCN(Cc1ccccc1)C1CCN(Cc2ccccc2)CC1 | 0.472%

Row | Structure (SMILES) | % Inhibition @ 10 uM
26 | O=C(CCCNS(=O)(=O)c1cccs1)NCc1ccc(F)cc1 | 2.59%
27 | CO/C(O)=C1/C(C)=NC2=C(C(=O)CC(c3ccccc3)C2)C1c1ccncc1 (stereo not shown) | 1.57%
28 | O=C1NC2(CCCCC2)C(=O)N1CCS(=O)(=O)Oc1ccc(Cl)cc1 | -2.79%
29 | O=C(Nc1ccc(N2CCN(C(=O)c3ccccc3)CC2)c(Cl)c1)c1ccc(Br)o1 | -4.71%
30 | CC(=O)N/C(=C\c1ccc(F)cc1)C(=O)OC(C)C | 0.685%
31 | CC(=O)c1oc2ccccc2c1NC(=O)CN1CCCCC1 | 0.76%
32 | O=C(O)CCCC(=O)N1N=C(c2ccccc2)CC1c1cccs1 (stereo not shown) | 0.343%
33 | CCOC(=O)N1CCC(NCc2ccccc2F)CC1 | 3.15%
34 | COc1cc(CN2CCN(Cc3ccccc3)CC2)cc(Br)c1O | -5.57%
35 | CSc1ncc(C(=O)NC2CCN(Cc3ccccc3)CC2)c(C)n1 | -3.9%
36 | O=C1NC(=O)N(c2ccccc2)C(=O)/C1=C\Nc1ccc(C(=O)N2CCCCC2)cc1 | -6.7%
37 | CC(C)CC/N=c1/c(-c2ccccc2)c(O)c1=O | -0.539%
38 | O=C(NCc1cccs1)c1cc2nc(-c3ccco3)cc(C(F)(F)Cl)n2n1 | -8%
39 | CC1=C(C(=O)Nc2ccccn2)C(c2ccc(Cl)cc2)C2=C(O)CC(c3ccccc3)CC2=N1 (stereo not shown) | 4.11%
40 | O=C(O)/C=C/C(=O)Nc1cccc(C(=O)O)c1 | -0.128%
41 | CC1=C(C(=O)Nc2ccc(Cl)cc2)C(c2ccc3c(c2)OCO3)n2nc(CCCO)nc2N1 (stereo not shown) | 5.44%
42 | O=C(NC1(C(F)(F)F)Oc2ccccc2O1)N1CC2CC(C1)c1cccc(=O)n1C2 (stereo not shown) | 1.26%
43 | CCC[C@H](NC(=O)C1(NC(=O)c2ccc(Cl)cc2)CCCCC1)C(=O)c1nc2ccccc2o1 | -1.41%
44 | COc1ccc(-c2nnc(SCC(=O)Nc3nccs3)n2-c2ccccc2)cc1OC | -10.9%
45 | Cc1ccc(-c2nnc(NC(=O)c3ccc(S(=O)(=O)N4CCCCC4)cc3)s2)cc1 | 0.997%
46 | N#CC1=C(N)OC2=C(C(=O)CC(c3ccco3)C2)C1c1ccc(OCc2ccc(F)cc2)cc1 (stereo not shown) | -2.83%
47 | CCCC(=O)Nc1ccc(C(=O)NCc2ccccc2OC)cc1 | -5.26%
48 | CCc1nn(CC(=O)NCC2CCCO2)c(=O)c2cc3sccc3n12 (stereo not shown) | -5.19%
49 | CC(C)(C)C(=O)c1cn(CC(=O)N2CCOCC2)c2ccccc12 | -5.41%
50 | CCCCN(C)CCCNC(=O)c1ccc2c(c1)sc1nc(-c3ccc(OCC)cc3)cn12 | 6.31%

Row | Structure (SMILES) | % Inhibition @ 10 uM
51 | CCn1nc(C)c(C(=O)Nc2ccc(S(=O)(=O)Nc3nc(C)cc(C)n3)cc2)c1C | -6.05%
52 | Cc1ccnc(N2C(=O)CSC2c2ccc(Cl)cc2)c1 (stereo not shown) | 0.435%
53 | CCOc1ccc(C2C=C(c3ccc(Cl)cc3)Nc3ncnn32)cc1OC (stereo not shown) | 3.32%
54 | COC(=O)C1=C(C)N=C(C)/C(=C(/O)OC)C1c1ccc(OC)cc1 (stereo not shown) | -2.6%
55 | CCOc1ccc(S(=O)(=O)N2CCN(C/C=C/c3ccccc3)CC2)c2ccccc12 | 2.79%
56 | Oc1nc2ccccc2nc1C(F)(F)F | 4.12%
57 | c1ccc(N2CCN(Cc3nnc(-c4ccc5c(c4)OCO5)o3)CC2)nc1 | -0.602%
58 | COc1ccc(-c2cc(C(F)F)n3ncc(C(=O)NC45CC6CC(CC(C6)C4)C5)c3n2)cc1 | -1.72%
59 | Cc1ccc(C2=CC(c3cccs3)n3ncnc3N2)cc1C (stereo not shown) | 1.86%
60 | CCOC(=O)c1c(C)n(Cc2ccccc2)c2ccc(OCC(O)Cn3nc(C)cc3C)cc12 (stereo not shown) | 2.56%
61 | COc1ccc(-c2nnc3c4ccccc4c(C)nn23)cc1S(=O)(=O)NCc1cccnc1 | 13.3%
62 | CCOCCCNC(=O)CCCc1nnc2n3nc(C)nc3c3ccccc3n12 | -1.21%
63 | O=C(O)c1ccccc1-c1ccc(/C=C/c2cc(C(F)(F)F)nc(O)n2)o1 | -0.833%
64 | CCn1cc(Cl)c(C(=O)Nc2sc(C(C)C)cc2C(N)=O)n1 | -4.28%
65 | N#C/C(=C\c1ccncc1)c1nc2ccccc2s1 | 3.95%
66 | COc1ccc(C2=NC3(CCN(C(=O)OC(C)(C)C)CC3)NC2=S)cc1 | -1.01%
67 | COCCN1C(=O)c2ccccc2C(C(=O)NCc2cccnc2)C1c1c[nH]c2ccccc12 (stereo not shown) | 3.51%
68 | N#CCNC(=O)[C@@H]1CCCC[C@@H]1CSc1cc(Cl)cc(Cl)c1 | 1.7%
69 | N#CC1=C(N)OC2=C(COC/C2=C/c2cccs2)C1c1cccs1 (stereo not shown) | -2.78%
70 | N#CC1=C(N)Oc2[nH]nc(-c3ccccn3)c2C1c1cccs1 (stereo not shown) | 0.983%
71 | Cc1c(C(=O)N2CCC(C)CC2)sc2nc(-c3ccc(F)cc3)cn12 | -3.7%
72 | O=C(CCCN1C(=O)c2cccc3cccc(c23)C1=O)N1CCN(c2ccc(F)cc2)CC1 | 0.0451%
73 | CCOC(=O)NC1(C(F)(F)F)C(=O)N(Cc2ccccc2)C2=C1C(=O)CC(C)(C)C2 (stereo not shown) | 3.54%
74 | Cc1ccc(C(=O)NC2CCC(NC(=O)c3ccc(C)o3)CC2)o1 (stereo not shown) | 1.57%
75 | O=C1c2cccnc2C(=O)N1Cc1ccc(S(=O)(=O)N2CCCCCC2)cc1 | -0.401%

Row | Structure (SMILES) | % Inhibition @ 10 uM
76 | O=C(c1ccccc1)N1CCC(C(=O)N2CCN(Cc3ccccc3)CC2)CC1 | 1.52%
77 | O=C(c1c[nH]c2ccccc12)C1NCCS1 (stereo not shown) | 3.31%
78 | Cc1ccc2nc(Cl)cc(SCC(=O)NC3CCCCC3)c2c1 | -0.631%
79 | COc1ccc(N2CCN(C(=O)C(C)Sc3ccc(Cl)cc3)CC2)cc1 (stereo not shown) | 3.35%
80 | CC1CN(C)C(C)C2c3ccccc3NC12 (stereo not shown) | -2.77%
81 | CCOc1ccccc1NC(=O)c1ccc(OC)cc1 | -1.29%
82 | Cc1c(C2=CCN(S(=O)(=O)c3ccc(Br)cc3)CC2)c2ccccc2n1C | 3.96%
83 | COc1ccc(C)cc1-n1nnc(-c2nsc(NC(=O)c3ccc(Cl)cc3)n2)c1C | 0.92%
84 | CC1CCCC(C)N1CCCNC(=O)Cn1ncc2c(=O)oc3ccccc3c21 (stereo not shown) | -0.431%
85 | COC(=O)CCN1CCN(c2ccccc2Cl)CC1 | -0.582%
86 | O=C1OC(c2cccc(Cl)c2Cl)=N/C1=C/c1ccc(F)cc1 | -2.54%
87 | COc1ccc(/C=C(/C#N)c2nc3c(s2)CC(C)CC3)cc1 (stereo not shown) | 3.06%
88 | O=C1/C(=C/C=C/c2ccccc2)C(=O)N(c2ccc(Br)cc2)C(=S)N1c1ccccc1 | -2.42%
89 | CCOc1ccc(S(=O)(=O)Nc2ccc(OCc3ccccc3)cc2)cc1 | 4.05%
90 | CCSc1nnc(NC(=O)CSc2nnc(-c3c[nH]c4ccccc34)n2C)s1 | -1.3%
91 | CC(C)(C)NC(=O)c1oc2ccccc2c1NC(=O)Cc1cccs1 | -3.65%
92 | CC(NCc1cccnc1)C12CC3CC(CC(C3)C1)C2 (stereo not shown) | 3.63%
93 | CC(Oc1ccccc1Cl)C(=O)N(Cc1ccco1)C1CCS(=O)(=O)C1 (stereo not shown) | -1.11%
94 | c1ccc(N2CCN(Cc3ccco3)CC2)nc1 | -5.57%
95 | O=C(c1ccccc1Br)N1CCCCC1CO (stereo not shown) | 1.62%
96 | O=C(CC1Sc2ccccc2NC1=O)Nc1ccc(O)cc1 (stereo not shown) | -7.4%
97 | O=C(c1cc2c(s1)-c1ccccc1S(=O)(=O)C2)N1CCN(Cc2ccccc2)CC1 | -2.39%
